This is one part of the list. Sequences were assembled here from the parent chain. Inactive controls read about 0.05.
B1: TEV protease; numbered along this chain (parent)
chain: MGESLFKGPRDYNPISSSICHLTNESDGHTTSLYGIGFGPFIITNKHLFRRNNGTLVVQSLHGVFKVKDTTTLQQHLVDGRDMIIIRMPKDFPPFPQKLKFREPQREERICLVTTNFQTKSMSSMVSDTSCTFPSGDGIFWKHWIQTKDGQCGSPLVSTRDGFIVGIHSASNFTNTNNYFTSVPKNFMELLTNQEAQQWVSGWRLNADSVLWGGHKVFMVKPEEPFQPVKEATQL

Variants of: B1
Assay: raw area under fraction-flipped curve 0-4 h after induction (AUC4h, not background-subtracted), DNA-recorder readout of cleavage of the substrate (dimensionless); higher = more cleavage of the substrate by the protease variant
Conditions: temperature: 34 °C; time window: 0-4 h after rhamnose induction
Description: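 In vivo DNA recorder in E. coli TOP10(DE3) ΔrhaA at 34 °C. Each TEVp single-site mutant (parent TEVp 0) is paired with a single-site variant of the 7-mer TEVs (canonical ENLYFQ|S). The substrate sits between flexible linkers in a Bxb1-sfGFP-TEVs-SsrA fusion, so cleavage stabilises Bxb1 and speeds flipping of a recombination array, read by NGS. The value is the raw area under the fraction-flipped curve over 0-4 h after rhamnose induction (AUC4h), with ≥20 reads per time point. It is not background-subtracted; inactive controls average about 0.047.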
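Note: Bxb1 expression induced with 0.2% (w/v) L-rhamnose at OD600 near 0.5, cultures sampled hourly, flipped fraction per protease–substrate barcode pair counted by paired-end Illumina sequencing.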

Variant: MGESLFKGPRDYNPISSSICHLTNESDGHTTSLYGIGFGPFIITNKHLFRRNNGTLVVQSLHGVFKVKDTTTLQQHLVDGRDMIEIRMPKDFPPFPQKLKFREPQREERICLVTTNFQTKSMSSMVSDTSCTFPSGDGIFWKHWIQTKDGQCGSPLVSTRDGFIVGIHSASNFTNTNNYFTSVPKNFMELLTNQEAQQWVSGWRLNADSVLWGGHKVFMVKPEEPFQPVKEATQL [I85E]
- area with substrate ENLAFQS: 0.0607
- area with substrate ENLCFQS: 0.0771
- area with substrate ENLEFQS: 0.0564
- area with substrate ENLFFQS: 0.0546
- area with substrate ENLGFQS: 0.0306
- area with substrate ENLHFQS: 0.0502
- area with substrate ENLIFQS: 0.0541
- area with substrate ENLKFQS: 0.0509
- area with substrate ENLNFQS: 0.0479
- area with substrate ENLSFQS: 0.038
- area with substrate ENLTFQS: 0.0717
- area with substrate ENLVFQS: 0.0777
- area with substrate ENLWFQS: 0.0573

Variant: MGESLFKGPRDYNPISSSICHLTNESDGHTTSLYGIGFGPFIITNKHLFRRNNGTLVVQSLHGVFKVKDTTTLQQHLVDGRDMIIIRMPKDFPPFDQKLKFREPQREERICLVTTNFQTKSMSSMVSDTSCTFPSGDGIFWKHWIQTKDGQCGSPLVSTRDGFIVGIHSASNFTNTNNYFTSVPKNFMELLTNQEAQQWVSGWRLNADSVLWGGHKVFMVKPEEPFQPVKEATQL [P96D]
- area with substrate ENLAFQS: 0.0799
- area with substrate ENLCFQS: 0.0537
- area with substrate ENLEFQS: 0.0581
- area with substrate ENLFFQS: 0.0758
- area with substrate ENLHFQS: 0.0777
- area with substrate ENLIFQS: 0.111
- area with substrate ENLKFQS: 0.0652
- area with substrate ENLLFQS: 0.0773
- area with substrate ENLMFQS: 0.0754
- area with substrate ENLNFQS: 0.0618
- area with substrate ENLSFQS: 0.0411
- area with substrate ENLWFQS: 0.0763

Variant: MGESLFKGPRDYNPISSSICHLTNESDGHTTSLYGIGFGPFIITNKHLFRRNNGTLVVQSLHGVFKVKDTTTLQQHLVDGRDMIIIRMIKDFPPFPQKLKFREPQREERICLVTTNFQTKSMSSMVSDTSCTFPSGDGIFWKHWIQTKDGQCGSPLVSTRDGFIVGIHSASNFTNTNNYFTSVPKNFMELLTNQEAQQWVSGWRLNADSVLWGGHKVFMVKPEEPFQPVKEATQL [P89I]
- area with substrate ENLAFQS: 0.0513
- area with substrate ENLEFQS: 0.0586
- area with substrate ENLFFQS: 0.055
- area with substrate ENLHFQS: 0.0567
- area with substrate ENLKFQS: 0.0499
- area with substrate ENLQFQS: 0.0479
- area with substrate ENLRFQS: 0.0536
- area with substrate ENLSFQS: 0.0522
- area with substrate ENLWFQS: 0.0414

Variant: MGESLFKGPRDYNPISSSICHLTNESDGHTTSLYGIGFGPFIITNKHLFRRNNGTLVVQSLHGVFKVKDTTTLQQHLVDGRDMIIIRMKKDFPPFPQKLKFREPQREERICLVTTNFQTKSMSSMVSDTSCTFPSGDGIFWKHWIQTKDGQCGSPLVSTRDGFIVGIHSASNFTNTNNYFTSVPKNFMELLTNQEAQQWVSGWRLNADSVLWGGHKVFMVKPEEPFQPVKEATQL [P89K]
- area with substrate ENLAFQS: 0.0618
- area with substrate ENLHFQS: 0.0507
- area with substrate ENLIFQS: 0.078
- area with substrate ENLKFQS: 0.0588
- area with substrate ENLNFQS: 0.049
- area with substrate ENLWFQS: 0.0572

Variant: MGESLFKGPRDYNPISSSICHLTNESDGHTTSLYGIGFGPFIITNKHLFRRNNGTLVVQSLHGVFKVKDTTTLQQHLVDGRDMIIIRMGKDFPPFPQKLKFREPQREERICLVTTNFQTKSMSSMVSDTSCTFPSGDGIFWKHWIQTKDGQCGSPLVSTRDGFIVGIHSASNFTNTNNYFTSVPKNFMELLTNQEAQQWVSGWRLNADSVLWGGHKVFMVKPEEPFQPVKEATQL [P89G]
- area with substrate ENLAFQS: 0.0601
- area with substrate ENLDFQS: 0.0521
- area with substrate ENLEFQS: 0.0597
- area with substrate ENLFFQS: 0.0604
- area with substrate ENLHFQS: 0.0666
- area with substrate ENLKFQS: 0.0712
- area with substrate ENLNFQS: 0.0586
- area with substrate ENLPFQS: 0.0474
- area with substrate ENLQFQS: 0.0701
- area with substrate ENLRFQS: 0.0567
- area with substrate ENLSFQS: 0.0722
- area with substrate ENLWFQS: 0.0519

Variant: MGESLFKGPRDYNPISSSICHLTNESDGHTTSLYGIGFGPFIITNKHLFRRNNGTLVVQSLHGVFKVKDTTTLQQHLVDGRDMIIIRMRKDFPPFPQKLKFREPQREERICLVTTNFQTKSMSSMVSDTSCTFPSGDGIFWKHWIQTKDGQCGSPLVSTRDGFIVGIHSASNFTNTNNYFTSVPKNFMELLTNQEAQQWVSGWRLNADSVLWGGHKVFMVKPEEPFQPVKEATQL [P89R]
- area with substrate ENLAFQS: 0.0573
- area with substrate ENLCFQS: 0.0567
- area with substrate ENLDFQS: 0.0519
- area with substrate ENLEFQS: 0.0691
- area with substrate ENLFFQS: 0.0807
- area with substrate ENLHFQS: 0.0622
- area with substrate ENLKFQS: 0.0639
- area with substrate ENLLFQS: 0.0456
- area with substrate ENLNFQS: 0.0606
- area with substrate ENLRFQS: 0.0728
- area with substrate ENLTFQS: 0.0403
- area with substrate ENLVFQS: 0.0571

Variant: MGESLFKGPRDYNPISSSICHLTNESDGHTTSLYGIGFGPFIITNKHLFRRNNGTLVVQSLHGVFKVKDTTTLQQHLVDGRDMIIIMMPKDFPPFPQKLKFREPQREERICLVTTNFQTKSMSSMVSDTSCTFPSGDGIFWKHWIQTKDGQCGSPLVSTRDGFIVGIHSASNFTNTNNYFTSVPKNFMELLTNQEAQQWVSGWRLNADSVLWGGHKVFMVKPEEPFQPVKEATQL [R87M]
- area with substrate ENLAFQS: 0.0576
- area with substrate ENLCFQS: 0.0895
- area with substrate ENLDFQS: 0.046
- area with substrate ENLHFQS: 0.0566
- area with substrate ENLIFQS: 0.0957
- area with substrate ENLLFQS: 0.0637
- area with substrate ENLQFQS: 0.0571
- area with substrate ENLRFQS: 0.0758
- area with substrate ENLWFQS: 0.0735

Variant: MGESLFKGPRDYNPISSSICHLTNESDGHTTSLYGIGFGPFIITNKHLFRRNNGTLVVQSLHGVFKVKDTTTLQQHLVDGRDMIIIEMPKDFPPFPQKLKFREPQREERICLVTTNFQTKSMSSMVSDTSCTFPSGDGIFWKHWIQTKDGQCGSPLVSTRDGFIVGIHSASNFTNTNNYFTSVPKNFMELLTNQEAQQWVSGWRLNADSVLWGGHKVFMVKPEEPFQPVKEATQL [R87E]
- area with substrate ENLAFQS: 0.0588
- area with substrate ENLCFQS: 0.0761
- area with substrate ENLHFQS: 0.0543
- area with substrate ENLKFQS: 0.0645
- area with substrate ENLNFQS: 0.0747
- area with substrate ENLQFQS: 0.0692

Variant: MGESLFKGPRDYNPISSSICHLTNESDGHTTSLYGIGFGPFIITNKHLFRRNNGTLVVQSLHGVFKVKDTTTLQQHLVDGRDMIIIRMPKGFPPFPQKLKFREPQREERICLVTTNFQTKSMSSMVSDTSCTFPSGDGIFWKHWIQTKDGQCGSPLVSTRDGFIVGIHSASNFTNTNNYFTSVPKNFMELLTNQEAQQWVSGWRLNADSVLWGGHKVFMVKPEEPFQPVKEATQL [D91G]
- area with substrate ENLAFQS: 0.0639
- area with substrate ENLDFQS: 0.0534
- area with substrate ENLEFQS: 0.0658
- area with substrate ENLFFQS: 0.0845
- area with substrate ENLHFQS: 0.0776
- area with substrate ENLIFQS: 0.0867
- area with substrate ENLKFQS: 0.069
- area with substrate ENLLFQS: 0.0785
- area with substrate ENLNFQS: 0.0672
- area with substrate ENLQFQS: 0.0843
- area with substrate ENLRFQS: 0.0626
- area with substrate ENLSFQS: 0.0607
- area with substrate ENLTFQS: 0.0696
- area with substrate ENLWFQS: 0.0658

Variant: MGESLFKGPRDYNPISSSICHLTNESDGHTTSLYGIGFGPFIITNKHLFRRNNGTLVVQSLHGVFKVKDTTTLQQHLVDGRDMIIIRMPEDFPPFPQKLKFREPQREERICLVTTNFQTKSMSSMVSDTSCTFPSGDGIFWKHWIQTKDGQCGSPLVSTRDGFIVGIHSASNFTNTNNYFTSVPKNFMELLTNQEAQQWVSGWRLNADSVLWGGHKVFMVKPEEPFQPVKEATQL [K90E]
- area with substrate ENLAFQS: 0.0819
- area with substrate ENLCFQS: 0.053
- area with substrate ENLIFQS: 0.0885
- area with substrate ENLRFQS: 0.0844
- area with substrate ENLTFQS: 0.0785

Variant: MGESLFKGPRDYNPISSSICHLTNESDGHTTSLYGIGFGPFIITNKHLFRRNNGTLVVQSLHGVFKVKDTTTLQQHLVDGRDMIIIRMPDDFPPFPQKLKFREPQREERICLVTTNFQTKSMSSMVSDTSCTFPSGDGIFWKHWIQTKDGQCGSPLVSTRDGFIVGIHSASNFTNTNNYFTSVPKNFMELLTNQEAQQWVSGWRLNADSVLWGGHKVFMVKPEEPFQPVKEATQL [K90D]
- area with substrate ENLAFQS: 0.0597
- area with substrate ENLDFQS: 0.0475
- area with substrate ENLFFQS: 0.0946
- area with substrate ENLHFQS: 0.0739
- area with substrate ENLKFQS: 0.0842
- area with substrate ENLSFQS: 0.0583

Reference: the supplement of paper PMC12217912
